From the RNAGym collection of RNA variant scans (doi:10.7554/elife.90254)
The source gives no read counts; variants with many changes may rest on few reads.

B1: LINE1-mini (parent)
chain: GGCAGAGCUCAACACAGCGUGGCAAAGUGGCUGUGGCUAGACUGCC

Variants of: B1
Test: self-cleavage, relative activity (ratio to wild type); higher = more cleavage; in vitro, sequencing; the parent is a self-cleaving ribozyme

| Variant | self-cleavage |
| --- | --- |
| A6C G7A A14G U38A | 0.03 |
| A6C G17C C18G G21A U32A A39G C45A | 0.04 |
| A6C C13A G30U | 0.09 |
| A6G A12C A14C G30A C37A A39U C46U | 0.01 |
| A6C U32G G44A C45A | 0.03 |
| A6G C8A C13A C15G G27C | 0.07 |
| A6C C18G U20G G35A | 0.05 |
| A6C C31U G36A C37U | 0.05 |
| A6C G40C G44A C45A | 0.02 |
| A6G A11G G19C G27A | 0.12 |
| A6G A16G G30U | 0.01 |
| A6G A26C G44U | 0.07 |
| A6C U9G G29U C46A | 0.04 |
| A6G A24G A25C | 0.18 |
| A6C G27U U34G A41U G44C | 0.12 |
| A6G C10G U34A C42G | 0.01 |
| A6C C13A A16G G29C C31U | 0 |
| A6G A16G G27U G44U | 0.11 |
| A6G C8U G27U U32A | 0.15 |
| A6G C10G A41U | 0.01 |
| A6C C18G U43A | 0.02 |

| Variant | self-cleavage |
| --- | --- |
| A6C C18U G27C G35U | 0.02 |
| A6C C23G G33C G35C | 0.04 |
| A6G C10U G21C G40C A41C C42A C46U | 0 |
| A6G C8U U34A C37G | 0.43 |
| A6C C8U C15G C42U | 0.01 |
| A6C C18G G27A | 0.34 |
| A6C G21U C31U | 0.06 |
| A6G C10G A11G G33A U43A C45G | 0.01 |
| A6G A12U G22C C23A A41U G44C | 0.01 |
| A6G C8A G29U | 0.36 |
| A6G A26G U34A G40A | 0.06 |
| A6C G33A A39G G44A | 0.03 |
| A6C G21A A25U G27C G35C G36U | 0 |
| A6C C15A G36C G40A | 0.03 |
| A6C G22U G36A | 0.13 |
| A6G A25G A39C | 0.31 |
| A6C G29A G36A | 0.41 |
| A6G C10A C18U G36C | 0 |
| A6G A25U U34A C42A | 0.03 |
| A6G A14C G17U C18A | 0.01 |
| A6C C10U A16C G29A U34G | 0.03 |

| Variant | self-cleavage |
| --- | --- |
| A6C C10A G30U | 0.58 |
| A6C U20C G30U | 0.53 |
| A6C C18A G30U | 1.39 |
| A6C C18A G30A | 0.13 |
| A6G C8G C46U | 0.19 |
| A6G C8U U20G A25C A41C | 0.17 |
| A6C C13A G17C | 0.02 |
| A6G A24G A39G C45A | 0.1 |
| A6C G17A C23A A24G G36C U43A G44U | 0 |
| A6G A16G G17C G21A G35C G40C A41C | 0.04 |
| A6C G7A A24C G44A | 0.11 |
| A6G C10A A11G A26G | 0.02 |
| A6G A14U G17U G27C G29A G44U | 0.23 |
| A6G C10A A26G | 0.01 |
| A6G A41U C45G | 0.09 |
| A6C G7U A14G C37U | 0.02 |
| A6C G22A C31A | 0.3 |
| A6C G19U U32C A41U | 0.17 |
| A6C C18A G29C U38G C45G | 0.01 |
| A6C C13A A26U | 0.32 |
| A6G C8A U20A G33U | 0.07 |

| Variant | self-cleavage |
| --- | --- |
| A6C C10A U20A G35A | 0.07 |
| A6C C18A U32G U43A | 0.01 |
| A6C C8U G21U | 0.41 |
| A6C C15A G17A G40U | 0.04 |
| A6C G33U A39U | 0.07 |
| A6G A14G G17U G36U C46U | 0.02 |
| A6C C18U C31A | 0.02 |
| A6C U20C G21U G33A | 0.02 |
| A6C U9C U20C G30U G33C | 0.02 |
| A6C C15U U20C C42G | 0.03 |
| A6C G21C G44A | 0.11 |
| A6C C13U C23A G40C | 0.1 |
| A6G A12U G21C G44U | 0.19 |
| A6C C37A G40U C46A | 0.07 |
| A6C C10U A12U C13U C15U U28G C45U | 0.04 |
| A6G A14U C37U | 0.01 |
| A6G A11C A26U G33A | 0.19 |
| A6C U20C G29A G35U G36A C46U | 0.06 |
| A6C G22U C46A | 2.05 |
| A6C G7A A26U A41C | 0.14 |
| A6C U9A U20G G22A A24U G29U C37A | 0.03 |
